# Measurements: patent US20230002488A1 (SYSTIMMUNE, published 2023)
# B1: SI-49P6 (other)
# heavy: EIVMTQSPSTLSASVGDRVIITCQASESISSWLAWYQQKPGKAPKLLIYEASKLASGVPSRFSGSGSGAEFTLTISSLQPDDFATYYCQGYFYFISRTYVNSFGCGTKLTVLGSTGSGSKPGSGEGSTKGEVQLVESGGGLVQPGGSLRLSCTASGFTISTNAMSWVRQAPGKCLEWVGVITGRDITYYASWAKGRFTISRDTSKNTVYLQMNSLRAEDTAVYYCARDGGSSAITSNNIWGQGTLVTVSTGGGGSGGGGSFLNSLFNQEVQIPLTESYCGPCPKNWICYKNNCYQFFDESKNWYESQASCMSQNASLLKVYSKEDQDLLKLVKSYHWMGLVHIPTNGSWQWEDGSILSPNLLTIIEMQKGDCALYASSFKGYIENCSTPNTYICMQRTVASTKGPSVFPLAPSSKSTSGGTAALGCLVKDYFPEPVTVSWNSGALTSGVHTFPAVLQSSGLYSLSSVVTVPSSSLGTQTYICNVNHKPSNTKVDKRV[sequence of human IgG1 Fc with L234A L235A N297A K322A (EU numbers) not given]GGGGSGGGGSEVQLLESGGGLVQPGGSLRLSCAASGFSFSSGYDMCWVRQAPGKCLEWIACIAAGSAGITYDANWAKGRFTISRDNSKNTLYLQMNSLRAEDTAVYYCARSAFSFDYAMDLWGQGTLVTVSSGGGGSGGGGSGGGGSGGGGSDIQMTQSPSTLSASVGDRVTITCQASQSISSHLNWYQQKPGKAPKLLIYKASTLASGVPSRFSGSGSGTEFTLTISSLQPDDFATYYCQQGYSWGNVDNVFGCGTKVEIKGGGGSGGGGSGRSLVESGGGLVQPGGSLRLSCTASGFTISSYHMQWVRQAPGKCLEYIGTISSGGNVYYASSARGRFTISRPSSKNTVDLQMNSLRAEDTAVYYCARDSGYSDPMWGQGTLVTVSSGGGGSGGGGSGGGGSGGGGSDVVMTQSPSSVSASVGDRVTITCQASQNIRTYLSWYQQKPGKAPKLLIYAAANLASGVPSRFSGSGSGTDFTLTISDLEPGDAATYYCQSTYLGTDYVGGAFGCGTKVEIK
# light: ENVLTQSPASLSASPGERVTITCSASSSVSYMHWYQQKPGQAPKLWIYDTSKLASGVPSRFSGSGSGNDHTLTISSMEPEDFATYYCFQGSVYPFTFGQGTKLEIKGSTGSGSKPGSGEGSTKGQVTLKESGPGLVQPGQTLRLTCAFSGFSLSTSGMGVGWIRQPPGKGLEWLAHIWWDDDKRYNPALKSRLTISKDTSKNQVYLQMNSLDAEDTAVYYCARMELWSYYFDYWGQGTLVTVSSGGGGSGGGGSGGGGSFLNSLFNQEVQIPLTESYCGPCPKNWICYKNNCYQFFDESKNWYESQASCMSQNASLLKVYSKEDQDLLKLVKSYHWMGLVHIPTNGSWQWEDGSILSPNLLTIIEMQKGDCALYASSFKGYIENCSTPNTYICMQRTVRTVAAPSVFIFPPSDEQLKSGTASVVCLLNNFYPREAKVQWKVDNALQSGNSQESVTEQDSKDSTYSLSSTLTLSKADYEKHKVYACEVTHQGLSSPVTKSFNRGEC
# notes: Antibody-like penta-GNC protein; human NKG2D (F78-V216) in place of VH and VL at D2; D1 CD3, D3 PD-L1, D4 4-1BB, D6 CD19; also called αCD3×NKG2D×αPD-L1×α4-1BB×αCD19
# B2: SI-49P10 (other)
# heavy: B1 heavy
# light: DIQMTQSPSSLSASVGDRVTITCQASQDISNYLNWYQQKPGKAPKLLIYDASNLETGVPSRFSGSGSGTDFTFTISSLQPEDIATYFCQHFDHLPLAFGGGTKVEIKGSTGSGSKPGSGEGSTKGQVQLQESGPGLVKPSETLSLTCTVSGGSVSSGDYYWTWIRQSPGKGLEWIGHIYYSGNTNYNPSLKSRLTISIDTSKTQFSLKLSSVTAADTAIYYCVRDRVTGAFDIWGQGTMVTVSSGGGGSGGGGSGGGGSFLNSLFNQEVQIPLTESYCGPCPKNWICYKNNCYQFFDESKNWYESQASCMSQNASLLKVYSKEDQDLLKLVKSYHWMGLVHIPTNGSWQWEDGSILSPNLLTIIEMQKGDCALYASSFKGYIENCSTPNTYICMQRTVRTVAAPSVFIFPPSDEQLKSGTASVVCLLNNFYPREAKVQWKVDNALQSGNSQESVTEQDSKDSTYSLSSTLTLSKADYEKHKVYACEVTHQGLSSPVTKSFNRGEC
# notes: Antibody-like penta-GNC protein; human NKG2D (F78-V216) in place of VH and VL at D2; D1 CD3, D3 PD-L1, D4 4-1BB, D6 EGFR; also called αCD3×NKG2D×αPD-L1×α4-1BB×αEGFR
# Columns and labels:
# biotinylated human MICA = target: T1, biotinylated human MICA (human, UniProt Q29983 24-308, limits assumed, biotinylated (site not stated)); experiment: BLI (Octet), biotinylated MICA on SA tips, GNC protein 0-100 nM as analyte
# Chain of biotinylated human MICA (Q29983 24-308 limits assumed): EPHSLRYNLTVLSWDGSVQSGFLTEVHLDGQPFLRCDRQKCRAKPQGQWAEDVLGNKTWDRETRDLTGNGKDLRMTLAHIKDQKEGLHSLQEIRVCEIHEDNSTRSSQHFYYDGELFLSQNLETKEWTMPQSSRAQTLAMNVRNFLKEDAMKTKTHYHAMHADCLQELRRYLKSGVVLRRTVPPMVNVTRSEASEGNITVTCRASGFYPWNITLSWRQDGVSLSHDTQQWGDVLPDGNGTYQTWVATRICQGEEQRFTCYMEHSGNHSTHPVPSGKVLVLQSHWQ
# T1 construct: Loaded on SA tips as ligand for SI-49P6 and SI-49P7
# MICA on MDA-MB-231 cells = MICA on MDA-MB-231 cells (human, UniProt Q29983 24-383); experiment: cell-based or functional assay
# Chain of MICA on MDA-MB-231 cells (Q29983 24-383): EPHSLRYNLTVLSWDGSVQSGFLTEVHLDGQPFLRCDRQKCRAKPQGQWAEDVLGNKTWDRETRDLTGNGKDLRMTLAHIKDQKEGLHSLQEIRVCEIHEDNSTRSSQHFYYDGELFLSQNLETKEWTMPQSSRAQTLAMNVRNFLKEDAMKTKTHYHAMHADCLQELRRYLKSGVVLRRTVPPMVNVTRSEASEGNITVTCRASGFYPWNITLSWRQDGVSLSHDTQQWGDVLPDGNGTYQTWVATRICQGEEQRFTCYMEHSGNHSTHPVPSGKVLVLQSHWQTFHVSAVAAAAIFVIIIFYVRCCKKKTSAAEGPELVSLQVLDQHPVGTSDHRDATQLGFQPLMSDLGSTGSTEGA
# His-tagged human MICA = target: T2, His-tagged human MICA (human, UniProt Q29983 24-308, limits assumed); experiment: BLI (Octet), GNC on AHC tips, His-tagged MICA as analyte
# Chain of His-tagged human MICA (Q29983 24-308 limits assumed): as the sequence (Q29983 24-308 limits assumed) above
# T2 construct: Analyte in the Octet runs with the GNC protein loaded on AHC tips; also called His-tagged MICA
# human EGFR = target: T3, human EGFR (human, UniProt P00533 in part); experiment: BLI (Octet), GNC on AHC sensor; strong binding, dissociation too slow to quantify KD
# T3 construct: also called huEGFR; His-tagged human EGFR
# human PD-L1 = target: T4, human PD-L1 (human, UniProt Q9NZQ7 in part); experiment: as above
# T4 construct: Bought antigen; construct not described
# human 4-1BB = target: T5, human 4-1BB (human, UniProt Q07011 24-186); experiment: BLI (Octet), GNC on AHC sensor, 100 nM antigen as analyte, 1:1 fit
# T5 construct: Bought antigen; construct not described
binder,measurement,setting,value
B1,Kd,biotinylated human MICA,7.76 nM
same,"TDCC EC50, MDA-MB-231 target cells",MICA on MDA-MB-231 cells,0.000737 nM
B2,Kd,His-tagged human MICA,1.84 nM
same,binding result,human EGFR,binds
same,binding result,human PD-L1,binds
same,Kd,human 4-1BB,2.79 nM
